# The list shows a part of the results.
# Assays:
# Experiment in all cases: glycan array binding signal (z-score within array); higher = stronger binding
# Settings in all cases: glycan notation: IUPAC condensed, linker removed; mutation: E227G
# [1] = target: Fuc(a1-2)[Gal(a1-3)]Gal(b1-4)GlcNAc(b1-2)Man(a1-3)[Fuc(a1-2)[Gal(a1-3)]Gal(b1-4)GlcNAc(b1-2)Man(a1-6)]Man(b1-4)GlcNAc(b1-4)GlcNAc
# Procedure, shortened: (§1)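 The Consortium for Functional Glycomics database supplied 3228 glycan arrays, of which those lacking an available protein sequence were dropped. The binding signal, a within-array Z-score, was averaged across arrays of the same protein sequence and across linkers. Negative scores can be read as non-binding.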
# [2] = target: Fuc(a1-2)[Gal(a1-3)]Gal(b1-4)GlcNAc(b1-2)Man(a1-3)[Fuc(a1-2)[Gal(a1-3)]Gal(b1-4)GlcNAc(b1-2)Man(a1-6)]Man(b1-4)GlcNAc(b1-4)[Fuc(a1-6)]GlcNAc
# Procedure, shortened: as §1
# [3] = target: Fuc(a1-2)[Gal(a1-3)]Gal(b1-4)GlcNAc(b1-3)GalNAc
# Procedure, shortened: as §1
# [4] = target: Fuc(a1-2)[Gal(a1-3)]Gal(b1-4)GlcNAc(b1-3)[Fuc(a1-2)[Gal(a1-3)]Gal(b1-4)GlcNAc(b1-6)]GalNAc
# Procedure, shortened: as §1
# [5] = target: Fuc(a1-2)[Gal(a1-3)]Gal(b1-4)GlcNAc(b1-6)GalNAc
# Procedure, shortened: as §1
# [6] = target: Fuc(a1-2)[Gal(a1-3)]Gal(b1-4)[Fuc(a1-3)]Glc
# Procedure, shortened: as §1
# [7] = target: Fuc(a1-2)[Gal(a1-3)]Gal(b1-4)[Fuc(a1-3)]GlcNAc
# Procedure, shortened: as §1
# [8] = target: Fuc(a1-2)[Gal(a1-3)]Gal(b1-4)[Fuc(a1-3)]GlcNAc(b1-3)GalNAc
# Procedure, shortened: as §1
# [9] = target: Fuc(a1-2)[Gal(a1-4)]Gal(b1-4)GlcNAc
# Procedure, shortened: as §1
# [10] = target: Fuc(a1-2)[GalNAc(a1-3)]Gal
# Procedure, shortened: as §1
# [11] = target: Fuc(a1-2)[GalNAc(a1-3)]Gal(b1-3)GalNAc(a1-3)[Fuc(a1-2)]Gal(b1-4)GlcNAc
# Procedure, shortened: as §1
# [12] = target: Fuc(a1-2)[GalNAc(a1-3)]Gal(b1-3)GalNAc(b1-3)Gal(a1-4)Gal(b1-4)Glc
# Procedure, shortened: as §1
# [13] = target: Fuc(a1-2)[GalNAc(a1-3)]Gal(b1-3)GlcNAc
# Procedure, shortened: as §1
# [14] = target: Fuc(a1-2)[GalNAc(a1-3)]Gal(b1-3)GlcNAc(b1-2)Man(a1-3)[Fuc(a1-2)[GalNAc(a1-3)]Gal(b1-3)GlcNAc(b1-2)Man(a1-6)]Man(b1-4)GlcNAc(b1-4)GlcNAc
# Procedure, shortened: as §1
# [15] = target: Fuc(a1-2)[GalNAc(a1-3)]Gal(b1-3)GlcNAc(b1-2)Man(a1-3)[Fuc(a1-2)[GalNAc(a1-3)]Gal(b1-3)GlcNAc(b1-2)Man(a1-6)]Man(b1-4)GlcNAc(b1-4)[Fuc(a1-6)]GlcNAc
# Procedure, shortened: as §1
# [16] = target: Fuc(a1-2)[GalNAc(a1-3)]Gal(b1-3)GlcNAc(b1-3)GalNAc
# Procedure, shortened: as §1
# [17] = target: Fuc(a1-2)[GalNAc(a1-3)]Gal(b1-3)GlcNAc(b1-6)GalNAc
# Procedure, shortened: as §1
# [18] = target: Fuc(a1-2)[GalNAc(a1-3)]Gal(b1-4)Glc
# Procedure, shortened: as §1
# [19] = target: Fuc(a1-2)[GalNAc(a1-3)]Gal(b1-4)GlcNAc
# Procedure, shortened: as §1
# [20] = target: Fuc(a1-2)[GalNAc(a1-3)]Gal(b1-4)GlcNAc(b1-2)Man
# Procedure, shortened: as §1
# [21] = target: Fuc(a1-2)[GalNAc(a1-3)]Gal(b1-4)GlcNAc(b1-2)Man(a1-3)[Fuc(a1-2)[GalNAc(a1-3)]Gal(b1-4)GlcNAc(b1-2)Man(a1-6)]Man(b1-4)GlcNAc(b1-4)GlcNAc
# Procedure, shortened: as §1
# [22] = target: Fuc(a1-2)[GalNAc(a1-3)]Gal(b1-4)GlcNAc(b1-2)Man(a1-3)[Fuc(a1-2)[GalNAc(a1-3)]Gal(b1-4)GlcNAc(b1-2)Man(a1-6)]Man(b1-4)GlcNAc(b1-4)[Fuc(a1-6)]GlcNAc
# Procedure, shortened: as §1
# [23] = target: Fuc(a1-2)[GalNAc(a1-3)]Gal(b1-4)GlcNAc(b1-3)Gal(b1-4)GlcNAc
# Procedure, shortened: as §1
# [24] = target: Fuc(a1-2)[GalNAc(a1-3)]Gal(b1-4)GlcNAc(b1-3)Gal(b1-4)GlcNAc(b1-3)Gal(b1-4)GlcNAc
# Procedure, shortened: as §1
# [25] = target: Fuc(a1-2)[GalNAc(a1-3)]Gal(b1-4)GlcNAc(b1-3)GalNAc
# Procedure, shortened: as §1
# [26] = target: Fuc(a1-2)[GalNAc(a1-3)]Gal(b1-4)GlcNAc(b1-3)[Fuc(a1-2)[GalNAc(a1-3)]Gal(b1-4)GlcNAc(b1-6)]GalNAc
# Procedure, shortened: as §1
# [27] = target: Fuc(a1-2)[GalNAc(a1-3)]Gal(b1-4)GlcNAc(b1-6)GalNAc
# Procedure, shortened: as §1
# [28] = target: Fuc(a1-2)[GalNAc(a1-3)]Gal(b1-4)[Fuc(a1-3)]GlcNAc
# Procedure, shortened: as §1
# [29] = target: Fuc(a1-2)[GalNAc(a1-3)]Gal(b1-4)[Fuc(a1-3)]GlcNAc(b1-3)GalNAc
# Procedure, shortened: as §1
# [30] = target: Fuc(a1-2)[GalNAc(a1-4)]Gal(b1-4)GlcNAc
# Procedure, shortened: as §1
binder,measurement,setting,value
"Epa1-NP-mutant-E227G (Candida glabrata), Q6VBJ0 (protein) MILNPALFLNKCVCIYTTLILLLLTNGGYATSSNDISLASKDPTTFPLGCSPDITTPKKGLSMELYSYDFRKKGSYPCWDAAYLDPNYPRTGYKSHRLLAKVDGVTGNINFYYHATKGCTPQLGHLPASYNYPKPLTMTNFTMLLYGYFRPKVTGFHTFTISADDLLFVNFGAGNAFDCCRRDSSADHFGNYQAYAIWGSKTAKDELTVHLDAGVYYPIRLFYNNRGYDGALSFTFKTESNENTVSDFSEYFFSLDDTEEGCPGLISYDSSCASVKTSKIIGIDYHTETPNENLVPITKTIYHLGIPCTGTTTTPLCGSGFYDPLANKCVTINTSSTSSVTKTTSHTTSKEVSFHSSISSQKTLIPKSIPSPYGPIKSQSIPTEMETSSEISSSEYAFSDVISTPSHSPYTKKHSSLNSSSYTSTVIHSLTSYSISQGIFSTSLSEQNITSKSSTDKFSTATSMSNNITQSSIIISQFSTNNENYTTTSMHTSSDKISTETLNNSISTTTSILFSNSSTILKNNTTIISSDKDTHYHPVNPTIVCSTNKTEIICASITQPSISNSNNHWSSSVLKFNSTTVRSTLPSSAGSNETSINVPFSSSTESNTSTSSTSTSNSKMVRSTLPSSAGSNETSISVPFSSSTESNTSTSSTSTSNSKMVRSTLPSSAGSNETSINVPFSSSTESNTSTSSTSTSNSKTVRSTPFSSAGIIMTSLSQRNNKSASSYASSNSKCYNTADSCRKVHSTPSYLLTSSYTSEGVDYDCSLVSTKLKINDTNCVNNKHTTKSCLKTSVTTTIPTLEIKTARKSSSNTIGLHSYPTSSPNKSISSAPIIGYISSFKTIKTASPSYQTSDLTTITTITSLNNPGSTAVENTHESNDKSRKTSSNDISSKHSVIKETKDAVESSNKSHQTNTLKCSSIIIASSSHNSYESLGGTTLTLTLSKVYSPQNNDTLPFLEISEVNPSRTVLPESSKMMQYLTSTEERNKTARNTIATNIVSISTFHFEGEGNAIRMGYTQLLLMLIGIIVMNIGT",glycan array binding signal (z-score),[1],0.109
same,glycan array binding signal (z-score),[2],-0.133
same,glycan array binding signal (z-score),[3],-0.236
same,glycan array binding signal (z-score),[4],-0.138
same,glycan array binding signal (z-score),[5],-0.253
same,glycan array binding signal (z-score),[6],-0.21
same,glycan array binding signal (z-score),[7],-0.183
same,glycan array binding signal (z-score),[8],-0.239
same,glycan array binding signal (z-score),[9],0.045
same,glycan array binding signal (z-score),[10],-0.161
same,glycan array binding signal (z-score),[11],-0.104
same,glycan array binding signal (z-score),[12],-0.175
same,glycan array binding signal (z-score),[13],-0.104
same,glycan array binding signal (z-score),[14],-0.222
same,glycan array binding signal (z-score),[15],-0.164
same,glycan array binding signal (z-score),[16],-0.086
same,glycan array binding signal (z-score),[17],-0.14
same,glycan array binding signal (z-score),[18],-0.019
same,glycan array binding signal (z-score),[19],-0.278
same,glycan array binding signal (z-score),[20],-0.022
same,glycan array binding signal (z-score),[21],0.028
same,glycan array binding signal (z-score),[22],-0.199
same,glycan array binding signal (z-score),[23],-0.278
same,glycan array binding signal (z-score),[24],-0.043
same,glycan array binding signal (z-score),[25],-0.303
same,glycan array binding signal (z-score),[26],-0.263
same,glycan array binding signal (z-score),[27],-0.271
same,glycan array binding signal (z-score),[28],-0.261
same,glycan array binding signal (z-score),[29],-0.151
same,glycan array binding signal (z-score),[30],-0.097

# From the supplement of paper PMC8728848
